Results from the supplement of paper PMC3334620.
Over roughly 33,000 sequences, “E-score (-0.5 to 0.5)” has its median near -0.011; the highest 2% begin near 0.28. Some of the results follow.

What follows are sequences tested against T1, Gcr1 (UniProt P07261) (assay: PBM E-score (8-mer binding enrichment) (E-score (-0.5 to 0.5)); higher = stronger / more preferred TF binding; most listed sequences are background and not binding sites). Settings: protein concentration: 100 nM; construct: GST-full length.
T1 sequence: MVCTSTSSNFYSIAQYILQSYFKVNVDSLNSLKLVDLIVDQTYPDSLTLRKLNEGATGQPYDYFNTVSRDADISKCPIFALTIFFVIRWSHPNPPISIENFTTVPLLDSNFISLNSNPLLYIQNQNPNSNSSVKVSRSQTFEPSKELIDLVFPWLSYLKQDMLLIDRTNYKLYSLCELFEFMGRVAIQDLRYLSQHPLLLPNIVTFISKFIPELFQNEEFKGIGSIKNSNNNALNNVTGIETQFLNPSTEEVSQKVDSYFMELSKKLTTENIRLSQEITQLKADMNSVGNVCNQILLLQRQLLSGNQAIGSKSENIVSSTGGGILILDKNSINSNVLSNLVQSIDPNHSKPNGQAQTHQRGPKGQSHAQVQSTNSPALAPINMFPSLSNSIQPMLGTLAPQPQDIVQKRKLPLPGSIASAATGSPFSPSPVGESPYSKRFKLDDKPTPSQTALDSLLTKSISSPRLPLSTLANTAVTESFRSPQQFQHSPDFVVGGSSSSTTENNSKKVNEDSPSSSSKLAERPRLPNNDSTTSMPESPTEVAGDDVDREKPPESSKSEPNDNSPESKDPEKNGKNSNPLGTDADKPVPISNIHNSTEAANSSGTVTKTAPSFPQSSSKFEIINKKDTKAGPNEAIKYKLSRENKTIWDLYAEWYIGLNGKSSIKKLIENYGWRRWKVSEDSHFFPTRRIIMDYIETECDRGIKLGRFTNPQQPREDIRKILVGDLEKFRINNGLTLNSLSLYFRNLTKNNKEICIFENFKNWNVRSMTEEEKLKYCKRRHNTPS
Description: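 Universal 'all 10-mer' protein binding microarrays (Agilent AMADID 015681) probed with GST-tagged S. cerevisiae TFs (full-length or DBD) made by in vitro transcription/translation (PURExpress), about 100-200 nM. Bound TF was detected with fluorescent anti-GST. Each ungapped 8-mer (which stands for itself and its reverse complement) is scored by the PBM enrichment score (E-score), a modified Wilcoxon-Mann-Whitney statistic from -0.5 to +0.5, computed with the Universal PBM Analysis Suite. Scale: above 0.35 generally sequence-specific binding.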

Sequence	PBM E-score
ATTTCGGC	0.141
ATGACTCG	-0.102
ACACGAGC	-0.148
GGATTGCC	-0.202
ATTTAAAT	0.27
AGATAAAG	0.0593
ACAATCCA	-0.0248
AACTTAGC	0.0498
CTAACGGC	0.0471
CGACGGGC	-0.162
CATTCGCG	0.0357
AATCGGGC	0.114
CAATTCAA	-0.0965
ACCTTAAT	-0.0158
CAAGCATG	-0.0982
CCGTATTC	-0.0504
AGCGGCCT	0.171
AGCTGACA	-0.238
CCTTTGCA	-0.0781
GCTAAGTA	0.00549
ACAAGGGA	-0.245
GCTGCGCA	0.0996
AGTTGTAG	0.212
ACGCTCGA	-0.117
ACGTCGGC	-0.155

Sequence	PBM E-score
CCTCCAAA	0.0892
GCGTCACA	-0.219
TAAACTGA	0.00509
CACACCGC	-0.0805
AACATAGG	0.111
AGTAAGAG	-0.0288
AAGTCCGG	-0.113
AAATCGGA	-0.00759
GTCATTGA	-0.16
GATTCTAA	0.0571
AAAGGCTA	-0.193
ACCTATTC	0.217
ACCGCACA	-0.0858
AGCAAGTC	-0.172
ATAACTGC	0.138
ATTTTCTG	0.162
AAGCCCCA	-0.127
ACGGAGCT	-0.175
ATCTATCG	-0.0256
AAAGTCGC	0.019
AATCAGAG	0.0956
CGATCGGC	0.0893
GGACTAAA	-0.16
CGTACTGA	-0.133
CAAGAGAA	0.0254

Sequence	PBM E-score
ACGACGTC	0.11
AACAGTAG	-0.00333
CGCCCCTA	0.0321
CGGACTGA	-0.249
GTAACACA	-0.0779
AGTCGACC	-0.184
GCATCCGA	0.33
TACGGCCA	-0.257
GCGAGAAC	-0.128
CCCGAAGA	-0.168
CCAAACGA	0.021
ATGGGCAG	0.0006
ACACCCCG	-0.0915
CAATTGAG	0.11
CTGCTTGC	-0.112
GCCTAGGA	-0.117
AACTAACG	-0.0576
ACCTGTCT	0.0764
ACTTAGCT	0.0537
ATCTGTAA	-0.00013
CGGCTTTA	-0.157
GCCCCGCA	-0.0148
ACAGCACA	-0.109
ATGAAGCG	-0.2
ACCGGTTC	0.0641

Sequence	PBM E-score
CATCTAGC	-0.0655
CACGTTCC	-0.115
AGGTCGCC	0.279
AGAGTAGA	0.153
CAAACACA	0.0357
CAAGCTAG	-0.0469
CGCGACGA	-0.12
CCATTACC	0.032
AGATCAGC	0.142
ATCTCTTC	-0.0153
ACTCGCGC	-0.123
CGAAAATA	0.0267
GAGAGTTA	-0.0213
TGGGTCAA	-0.204
CGACGACG	-0.0848
CATCCGCA	0.12
CTTTATTA	0.123
AAACTTAT	0.191
AGGCAAGA	0.00064
ACTCATGA	-0.224
TATATAAA	0.205
ACCTCACC	-0.175
CATTCTCA	-0.0558
GTTGATGA	-0.102
CATACGCA	0.0448

Sequence	PBM E-score
AGGACGAC	-0.18
AATTTATG	0.126
CACGGCCG	-0.152
GATTTTGA	0.00918
TTTCCAAA	0.178
AGATTACG	-0.00041
AGACCTTA	-0.0269
TATAATAA	0.204
CCAATGGG	-0.0277
AAAATACT	0.0897
CAAGTCCG	-0.0975
AAATATGT	0.211
ACAATCGC	-0.128
CCCGTAGA	-0.0851
ACCACGGT	-0.23
AGGTCTAA	-0.138
ACATGCCC	-0.194
GCACCCCA	0.241
ATGAATTG	-0.0932
AATCAGGG	-0.113
ACGGGACG	-0.0274
GTCAGCGA	-0.0329
CCCACCAG	0.0742
ATGAGTCA	-0.149
ATATTCAG	0.0283

Sequence	PBM E-score
TGGTCAAA	0.0343
CCAGCCCC	0.0827
AATTATGG	0.239
GTCGACAC	-0.012
CATCGTAC	-0.0279
TACGTAAA	-0.0139
CACCTTAA	0.0723
GTGTTGGA	0.121
CGGGTCAA	-0.138
TGTGAACA	-0.0798
GAGAAGCA	0.111
CTAATAAA	0.223
AGGCGAAC	-0.219
GACGCCCA	0.427
AACTAAGG	0.0143
AAGGCGTG	-0.0647
GGCTTTGA	-0.296
CGACCCTC	-0.122
ACATCCCA	0.0139
CAATAGAC	0.0628
GAGAGGGA	-0.149
ATCCCTAC	0.0292
AGCTAACA	-0.239
AGGCCAAT	-0.142
CCGTTAGG	0.0609

Sequence	PBM E-score
CAATCGTA	0.115
CACAGCGC	-0.0554
GTCCTAAC	0.0109
ATCCAAAG	0.189
CGCCGCCG	0.0906
AAGGGGGG	-0.427
ACTAGGGC	-0.149
TACTGGAA	0.446
GACTCTAC	-0.0308
CAGTACTG	0.089
ATGGATGC	0.389
ATTAACCG	0.119
CAATTTCA	0.211
AAAATACG	0.0697
CGGTCTAG	-0.167
GGAGGGCA	-0.199
CTTAGGGA	-0.0687
ACTCGTCA	-0.125
ACTCCATC	-0.073
AGTGTCAG	-0.142
AAGTTAGG	-0.0179
CAGCACAC	-0.251
